According to the RNAGym collection of RNA variant scans (doi:10.7554/elife.90254):
Read counts are not given, so values of variants with three or more changes are uncertain.

B1: LINE1-mini (parent)
chain: GGCAGAGCUCAACACAGCGUGGCAAAGUGGCUGUGGCUAGACUGCC

Variants of: B1
Experiment: self-cleavage, relative activity (ratio to wild type); higher = more cleavage; in vitro, sequencing; the parent is a self-cleaving ribozyme

| Variant | self-cleavage |
| --- | --- |
| G1C A11G C23A G29C | 0.01 |
| C13A C15A G22A C46U | 0.09 |
| U20G A24U C31A G44U | 0.01 |
| G2U G17C G36U A39G G44A C46A | 0.03 |
| G5A A6U G29A | 0.07 |
| C23A G30A U34A | 0.16 |
| A6U G19U G27U U32C | 0.02 |
| C3G G17U G35U U43A | 0.08 |
| C3A U20A C23U | 0.12 |
| G1U G2A A14U A39U | 0.07 |
| U9G G21C G22A | 0.05 |
| C13A C15U A16C | 0.09 |
| G19A G22C C45U | 2.04 |
| G2A A4G A16G G30U A41G | 0.04 |
| G7C G27A G36U | 0.06 |
| C15G G30U G36A A39C C45A | 0.02 |
| G2A G29U U32C | 0.4 |
| G36C C45U C46G | 0.03 |
| G7A A14G A24C A41G | 0.26 |
| C3A A11C G21C | 0.05 |
| A4C U9C C10A A11U C13A G17C U28G U34C G35A | 0.01 |

| Variant | self-cleavage |
| --- | --- |
| C8G U9G C18A C37A | 0.03 |
| C3G A16U C18A G33U U43C | 0.01 |
| A14G G30C C42A U43C | 0.03 |
| C8G U9G C15A G33C A41C C42A | 0.02 |
| C18A G19A U20C A39C | 0.24 |
| C8U A11U A12G G27U U38C | 0.01 |
| A4G C23A C31U | 0.14 |
| C18U C31A C42U | 0.02 |
| G21U G29U G35A | 0.18 |
| A24C A25U U34G C37U C42G | 0 |
| G5U A6C C37G | 0.04 |
| G2C U9C A12G U20C | 0.08 |
| C10U C15U G35U C45U | 0.02 |
| G22U A41U C42G | 0.14 |
| G33A C42G U43A G44C C45U | 0.02 |
| C3A C18A U28C | 0.19 |
| A14G G17U G19A A41U | 0.01 |
| A4C C8U G29C G33U A41C | 0.04 |
| C23U A25G G29C | 0.12 |
| G1C A6G G22A A39G C46U | 0.01 |
| G1A C15A C46U | 0.15 |

| Variant | self-cleavage |
| --- | --- |
| U9C C31U G35A | 0.1 |
| G22U C23A U43G | 0 |
| G1U C8G C18A G30C G35U G36C C46G | 0.01 |
| U9A A11U A12U G19C G30A U34G | 0.02 |
| C31A A39C G44U | 0.06 |
| G2C C8A A11C G19U G40U C42A | 0.01 |
| G1U G19U C31A G33U A41U | 0.03 |
| G1U C15U G21C C23U C46A | 0.6 |
| A12C U32G A39U G40A | 0 |
| A11U G17U A39G C45G | 0.01 |
| G2A A16U G19C G35U G40C | 0.32 |
| C15A U20C C31G A41U | 0.01 |
| A14U G21C U38A C42U | 0.06 |
| U20C A25U A39U C42G G44U | 0.02 |
| A14C C15U G30A G36C C46A | 0.02 |
| A6G C8A C18A G29C U38A C42A | 0.02 |
| G1A C3G A12G | 0.16 |
| G21U C31A G40U | 0.03 |
| A14U C31G G33C A39C U43A C46U | 0.03 |
| G19U G22U C31A C46A | 0.42 |
| G1U A14C G17C A24G U43G | 0 |

| Variant | self-cleavage |
| --- | --- |
| G7A A25U A39C | 0.1 |
| A12G U34C G36U | 0.02 |
| C10A G21A G35A C42G | 0.03 |
| C3U A14G G22U | 0.34 |
| G7U G22U C42U C46G | 0.05 |
| G2A A4U C31G | 0.04 |
| A4U U9C G22C C46A | 0.01 |
| U9C G21U G22C A25C G33U | 0.02 |
| C23A U28C U38A U43A | 0.12 |
| G2A C10A C18A G21C | 0.05 |
| C8U A26C U34A A41U | 0.14 |
| A14G G21C A24C G35U | 0.08 |
| C23A G30C G35U G36U | 0.16 |
| A14U C15A G17U G22C | 0.02 |
| G19A C37A C46A | 0.02 |
| C13A U28A G44U | 0.2 |
| A6C G19U G40U | 0.05 |
| C13A A14U A39C | 0.07 |
| G5A G7U C15U U43A | 0.44 |
| U9A A25C G44C | 0.03 |
| A11G A25U G30C | 0.01 |
